Binding signal data for 22 molecules are collected here from PMC12136788.

Some of the results follow.

T1: UNK ZnF1-3 (human, UniProt Q9C0B0 31-174)
T1 sequence: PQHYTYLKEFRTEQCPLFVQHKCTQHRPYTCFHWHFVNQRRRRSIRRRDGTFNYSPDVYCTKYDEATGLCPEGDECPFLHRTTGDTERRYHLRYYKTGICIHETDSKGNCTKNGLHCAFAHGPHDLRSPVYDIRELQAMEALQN

B1: 46892552_46892672_1950_3pUTR_ENSMUSG00000032905_ENSMUST00000035648|mouse|control|control (ssRNA)
RNA: GGGAGUUCUACAGUCCGACGAUCAAGCCCCGGAGCCUGAGGCAGGUCAGCCUGAGUGACACAGUCAAUCUCAAAAGCAGGACAACAACAGAGUAGCAUUUUACUGUAAUUUUUCCCCCAGAGGUGAGACAAUCUCACUCUGUACAACAGAGGAUUGAGCAUCA
B2: chr9:13223689:13223690:-_ENSG00000107186_ENST00000319217|hu_hu|FALSE|FALSE (ssRNA)
RNA: GGGAGUUCUACAGUCCGACGAUCCUCUUGAACAAAUAUUCCCAGCUCUCCUCUGUUUUCACUUCUUAGUCCCACAACACUAAACCCAAGGCCUCCAGAUGGAGGUUUGAGGAGCUCAAAAACUUCUACAUGGCGACCCUGGGCCAACAGAGGAUUGAGCAUCA
B3: chr5:21408736:21408737:-_ENSMUSG00000042453_ENSMUST00000161356|mus_mus|FALSE|FALSE (ssRNA)
RNA: GGGAGUUCUACAGUCCGACGAUCGUUGACAGCAUUAUAAAUGGUGGCUUCAUGGAACUGGAACGGGGAGCAGCCAAUGCUAUUGGAAGAGGAAGGUAGGCACUGGGUCUGCACGAGCUGCCAGGAAUCGGACCUUGCAUCCUUCAACAGAGGAUUGAGCAUCA
B4: chr17:65740002:65740003:+_ENSG00000130935_ENST00000581375|hu_hu|hu_hu_hu_mus_False|38_38 (ssRNA)
RNA: GGGAGUUCUACAGUCCGACGAUCAACAAAUCUUUCUUCCCUGGACGAACAGGAAGAUUCAUAUUAAAAAAAAUAUAUAUCCAUCAAGUUAGGUGUGUAAUAUCAGACUUUACUCCCAGCACUUUGGGAGGUGGAUCUCUGAGUCAACAGAGGAUUGAGCAUCA
B5: chr4:71639242:71639243:+_ENSG00000018189_ENST00000226328|hu_mus|motif|central (ssRNA)
RNA: GGGAGUUCUACAGUCCGACGAUCUCCAUCCCCUUCACUACCUUUACUACUGUUUCCAUCUUUGAGAUACAUCGAAAAAUCGGUAACUCCAACCUGAGAGUCCAGGUCUUCUCCUUUCAUGCAGAAAUUGGCAUCGAUGACAUUCAACAGAGGAUUGAGCAUCA
B6: chr4:48249827:48249828:-_ENSMUSG00000028343_ENSMUST00000030028|mus_mus|FALSE|FALSE (ssRNA)
RNA: GGGAGUUCUACAGUCCGACGAUCCUCAAAAAUUGGAUGCAACAUCUGGCUGAAACGACACCAGUCAGCAUAAAAAUUUACUAAAGCAACAUCAGCAUUAUUUAAAAUUUCAUCUAUAUUCUCUGAAUCAAGACUUGCUAUUUCCAACAGAGGAUUGAGCAUCA
B7: chr17:60770872:60770873:+_ENSG00000011028_ENST00000303375|hu_hu|hu_hu_hu_mus_True|38_88 (ssRNA)
RNA: GGGAGUUCUACAGUCCGACGAUCUCUUUAAAAAAAAAAAAAAAAAGUUUAAAAACAAUAGCACAUUUCGAGAAUCAAGAACUACAAUAGAGGGUCCAUGUCUUCGAUUUGUUCACAUCGUCCUGCACUGGGACACGGGGACUGCAACAGAGGAUUGAGCAUCA
B8: chr2:160775391:160775392:-_ENSMUSG00000057133_ENSMUST00000039782|mus_mus|motif|central (ssRNA)
RNA: GGGAGUUCUACAGUCCGACGAUCGAUGAGUCCAGGAGACACUCCUGGGAUGAGAAAUGGGUUGAAAGCCACAGGACGGCGGGUAGUUAUUGUGGGUUCUGACUGAUCAGAAAACGGACUAGGGCCAGGCUUGUCGUCUACCAGCAACAGAGGAUUGAGCAUCA
B9: chr11:69795057:69795058:+_ENSMUSG00000018559_ENSMUST00000108593|mus_mus|FALSE|FALSE (ssRNA)
RNA: GGGAGUUCUACAGUCCGACGAUCAUAUCGAACAGUCUGAUACUGAAUUACCGUGCGGAUCUGCCUCCGCAAAAGGUAAAUAAAGAAGCUCCAGAGCUUGGCGGCGAAGGCCACGAACGUGCGCAGCCCCAGCAGACACUGCGUCAACAGAGGAUUGAGCAUCA
B10: chr3:97503841:97503842:+_ENSG00000113966_ENST00000463745|hu_mus|FALSE|FALSE (ssRNA)
RNA: GGGAGUUCUACAGUCCGACGAUCAUCUGGGUGAUUCAGAAGGGUAUCAAGCUCUUCUUUGGCCACAACCAUUCUUAACUUAUCACUACUAUCAAUGACAAAAAUAAUGGCUUGUCCAUCUUUAUAAUAGUGUUCCCAGAGAUUCAACAGAGGAUUGAGCAUCA
B11: chr16:94690093:94690094:+_ENSMUSG00000040785_ENSMUST00000117648|mus_hu|mus_mus_mus_hu_True|8_8 (ssRNA)
RNA: GGGAGUUCUACAGUCCGACGAUCGGGCUGGGAUGACGGACACACAGCCUCGAUUCCAGGGGGAAAAAGUCUUAGUCGAUACUAAUUAAAAAGUGUUAAUGAUUUUUGAAAAUCAGAUUACAUCUAUUUGAAUCAUAAAGCAAACAACAGAGGAUUGAGCAUCA
B12: chr4:25749455:25749456:-_ENSG00000091490_ENST00000264868|hu_hu|hu_hu_hu_mus_False|38_68 (ssRNA)
RNA: GGGAGUUCUACAGUCCGACGAUCGCACUAUGACCUCUAGAAAAAUCCACAGGGGGAAAAAAUGUAAACCAAUUUACAAUGUUAUCGCCUUCCCUGUAUUUCCAGGCUUUGUCUCAAGGCUCCUUCUAGCUGCUGGAUUUGGGACAACAGAGGAUUGAGCAUCA
B13: 17452503_17452623_484_5pUTR_ENSMUSG00000006134_ENSMUST00000006293|mouse|control|control (ssRNA)
RNA: GGGAGUUCUACAGUCCGACGAUCGGCCCCAUGUACCAGGCAGAGCGGUCUGAAGAAUCAAACCUGGCGGAGGACAUGGUGUUGGGCUCGGGGAUGGGCGGCGUCUGCGGCUCUCUUGCUUGGGAAGCCUUUACCCGCUGUCGGCAACAGAGGAUUGAGCAUCA
B14: 38655397_38655517_4628_CDS_ENSG00000105738_ENST00000222345|human|control|control (ssRNA)
RNA: GGGAGUUCUACAGUCCGACGAUCCCCCGCCAGUCCCGUGGGGGUGCUGGAGCCGGAGGAGUACAGCUUCGGUCGGUAGCCCUUGCUUUGGCCGGCAACUGCGGGGGCAGGGGAGACCUCCCGCCGCCUGUCUGCGUGGUGGGACAACAGAGGAUUGAGCAUCA
B15: chr8:87798904:87798905:-_ENSMUSG00000031696_ENSMUST00000034131|mus_hu|FALSE|FALSE (ssRNA)
RNA: GGGAGUUCUACAGUCCGACGAUCAAAAUAUUGUUGUAAGUGUCAACUGGUAUUUUCAAAAGUCUGGUGAGUUCCUUUGAAACUGCACUACUGGUAGCAAUAUGUUCAAGGUUGAGCUUAUUGAAUAUCUCCACUGUUGUUUCUCAACAGAGGAUUGAGCAUCA
B16: 87925773_87928352_424_CDS_ENSG00000188994_ENST00000369577|human|control|control (ssRNA)
RNA: GGGAGUUCUACAGUCCGACGAUCUUCACAGCUGCCAUUCUCCAUCAGCUUUUCAUGAGCUACCUGCACCAGUGUCUGAAAUUGUUCCCACUGUUUAUCUGAUAACUCAACAGGCAGACACAGUAAAAGUUCAACACAGCUUAACAACAGAGGAUUGAGCAUCA
B17: chr11:18503389:18503390:-_ENSG00000074319_ENST00000251968|hu_hu|hu_hu_hu_mus_True|48_108 (ssRNA)
RNA: GGGAGUUCUACAGUCCGACGAUCAUUUUCCAUUUUUUCCAGAGCAGAACUUAGUUCUUCAUCCUUCUUUUUCAAAAGUUCUAUGUUUUUAUCAACCUCAGCUACUUCUUGAUCUAAGCGGGUGACCAUCUCUUCCAGUUUCUGCAACAGAGGAUUGAGCAUCA
B18: 78478775_78478895_569_CDS_ENSG00000162616_ENST00000370763|human|control|control (ssRNA)
RNA: GGGAGUUCUACAGUCCGACGAUCUUCUUCAGAAUCUCUACCACCACCCAUUCGUCUUCCAAAGAAAAUUUCAAAGGGGUUGGACCCUCCGAAAAAUGCAGCAAAUGUAGCAUGAGGAUCGCCAUGAAAGGUGUACCGGAAGGUCAACAGAGGAUUGAGCAUCA
B19: chr13:42874254:42874255:+_ENSG00000023516_ENST00000025301|hu_hu|FALSE|FALSE (ssRNA)
RNA: GGGAGUUCUACAGUCCGACGAUCUCCACCAAUAUCUGUUUGGCAAAAACAUUCAGCUGGAGUACAGCCUCCAAGAGGACUAAAAGCAGAGGAUCGAAUAGGACUAAAUAAACCACUAUCUUCCCUUGAUGCCUUCACUGGGCGCAACAGAGGAUUGAGCAUCA
B20: chr18:59899606:59899607:+_ENSG00000134444_ENST00000256858|hu_hu|FALSE|FALSE (ssRNA)
RNA: GGGAGUUCUACAGUCCGACGAUCUCCCAGCAUUAACAUAACGCUUUUUUCACUGUCUGCAAUACGAGACACCUCGUAUCCUAAACGACUAUCUGCUGACAUUCGACAAAAAGAGAGUAGUGCUUGAUGGAAUGCAGGAGACAACAACAGAGGAUUGAGCAUCA
B21: 59820218_59820338_214_3pUTR_ENSMUSG00000035469_ENSMUST00000043227|mouse|control|control (ssRNA)
RNA: GGGAGUUCUACAGUCCGACGAUCCGCCGCACACCUGGGGGAAGCGCCCGCAAGACGGAAUCCGCGGGUGCCCGGUGCGGGGUGCGCGUCGCCGGGGAGUCGCGAACGCGCCUGGUGCGCACGGCCCUCGGGAGGGCGCGGACUCAACAGAGGAUUGAGCAUCA
B22: 44721345_44733441_1335_CDS_ENSG00000105953_ENST00000222673|human|control|control (ssRNA)
RNA: GGGAGUUCUACAGUCCGACGAUCGUCGGUGGUGAAGCCGAUCUGGUUGUUGACGACCACGUGCACGGUGCCAUGAGUUGUGUAGGAUGGCAGGUCGCUGAGGUGGAAGGUCUCGUACACAAUGCCCUGGCCAGCAAAUGCAGCCAACAGAGGAUUGAGCAUCA

The target in this assay is T1, UNK ZnF1-3. The assay can be described thus: nsRBNS (natural sequence RNA bind-n-seq); RBNS binding buffer (assumed for nsRBNS): 25 mM Tris pH 7.5, 150 mM KCl, 3 mM MgCl2, 0.01% Triton X-100, 500 ug/ml BSA, 20 U/ml SUPERase-In, 4 C; UNK is unkempt and MSI1 is Musashi-1; names of the RNAs are library labels; protein concentration not given here; high values mean tight binding.
Take B1: the binding signal was 1.34 enrichment R.

In turn, B2 displayed a binding signal of 0.981 enrichment R.

As to B3, the binding signal amounted to 1.66 enrichment R.

The molecule B4 came in with a binding signal of 1.35 enrichment R.

As for B5, the binding signal is 1 enrichment R.

In the case of B6, the binding signal worked out at 1.71 enrichment R.

In turn, B7 showed a binding signal of 3.19 enrichment R.

In turn, B8 registered a binding signal of 1.35 enrichment R.

B9 registered a binding signal of 0.482 enrichment R.

The molecule B10 gave a binding signal of 0.806 enrichment R.

Consider B11, for which the binding signal was determined as 0.671 enrichment R.

B12 had a binding signal of 1.04 enrichment R.

In the case of B13, the binding signal was determined as 0.729 enrichment R.

Take B14: the binding signal was 0.545 enrichment R.

In turn, B15 returned a binding signal of 0.832 enrichment R.

B16 came in with a binding signal of 1.04 enrichment R.

B17 registered a binding signal of 0.466 enrichment R.

In turn, B18 registered a binding signal of 1.17 enrichment R.

The molecule B19 displayed a binding signal of 1.43 enrichment R.

B20 came in with a binding signal of 0.842 enrichment R.

For the molecule B21, the binding signal turned out to be 0.352 enrichment R.

Molecule B22 registered a binding signal of 0.508 enrichment R.
